Reference: the antibiotic and cytotoxicity screens of Wong et al. (2023)
The other results are listed elsewhere or left out.

System: HepG2
Test: cytotoxicity call (relative viability < 0.9)
Conditions: 10 µM

SMILES | cytotoxicity call
CNCCc1ccccn1 | inactive
CCCC#Cc1ccc2c(c1)O[C@@H](CN(C)C(=O)c1cnccn1)[C@H](C)CN([C@@H](C)CO)S2(=O)=O | inactive
CC(C)NC(=O)Nc1ccc2c(c1)C(=O)N([C@H](C)CO)C[C@H](C)[C@@H](CN(C)Cc1ccccc1)OCCCC[C@@H](C)O2 | inactive

System: S. aureus RN4220
Test: growth inhibition call (relative growth <= 0.2)
Conditions: 50 µM

SMILES | growth inhibition call
CCCCCCCCCCCCCCCCOc1nc2ccc(C)cc2c(=O)o1 | inactive
C[C@H](CO)N1C[C@H](C)[C@H](CN(C)C(=O)CN2CCOCC2)Oc2ncc(-c3cncnc3)cc2C1=O | inactive
C[C@H]1CN([C@@H](C)CO)S(=O)(=O)c2ccc(C#CC3CC3)cc2O[C@@H]1CN(C)C(=O)Cc1ccncc1 | inactive
C[C@H](CO)N1C[C@H](C)[C@H](CN(C)Cc2ccc(C(=O)O)cc2)Oc2c(NC(=O)c3ccncc3)cccc2C1=O | inactive
C[C@H]1CN([C@@H](C)CO)C(=O)c2cccc(NC(=O)C3CCOCC3)c2O[C@H]1CN(C)S(=O)(=O)c1ccc(F)cc1 | inactive
Cc1ccc(S(=O)(=O)Nc2ccc3c(c2)C(=O)N([C@H](C)CO)C[C@H](C)[C@@H](CN(C)Cc2ccc(Cl)c(Cl)c2)O3)cc1 | inactive
O=C(C[C@@H]1CC[C@@H]2[C@H](COC[C@@H](O)CN2C(=O)Nc2ccc(F)cc2)O1)NCCCN1CCOCC1 | inactive
C[C@@H]1CN([C@@H](C)CO)C(=O)c2cc(NS(C)(=O)=O)ccc2O[C@@H](C)CCCCO[C@@H]1CN(C)S(=O)(=O)c1cccs1 | inactive
C[C@@H]1CN([C@H](C)CO)C(=O)Cc2cc(NC(=O)c3ccncc3)ccc2O[C@H]1CN(C)C(=O)NC1CCCCC1 | inactive
CCCCC[C@@H](O)C[C@@H](O)CC(=O)O[C@@H](CCCCC)C[C@@H](O)CC(=O)OC[C@@H](O)[C@@H](O)[C@@H](O)[C@@H](O)CO | inactive
COc1ccc(S(=O)(=O)Nc2ccc3c(c2)C(=O)N([C@H](C)CO)C[C@@H](C)[C@@H](CN(C)C(=O)Nc2c(C)noc2C)O3)cc1 | inactive
C[C@@H]1CCCCO[C@H](CN(C)C(=O)Cc2ccccc2)[C@H](C)CN([C@@H](C)CO)C(=O)c2cc(NS(=O)(=O)c3ccc(F)cc3)ccc2O1 | inactive
O=C(C[C@@H]1CC[C@@H]2[C@H](COC[C@H](O)CN2S(=O)(=O)c2ccccc2)O1)NCc1ccc(-c2ccccc2)cc1 | inactive
COCC#Cc1ccc([C@@H]2[C@@H](CO)N3C(=O)CN(C(=O)c4cccnc4)C[C@@H]23)cc1 | inactive
C[C@@H]1CN([C@H](C)CO)C(=O)Cc2cc(NS(=O)(=O)c3cccs3)ccc2O[C@H]1CN(C)S(C)(=O)=O | inactive
C[S+](C)CC[C@H](N)C(=O)O | inactive
Nc1ncnc2c1ncn2[C@@H]1O[C@H](C[C@@H](N)CC[C@H](N)C(=O)O)[C@@H](O)[C@H]1O | inactive
CN(C)CC#Cc1ccc([C@H]2[C@@H](CO)N3C(=O)CN(C(=O)c4cccnc4)C[C@@H]23)cc1 | inactive
C[C@@H]1CCCCO[C@H](CN(C)C(=O)C2CCCCC2)[C@@H](C)CN([C@H](C)CO)C(=O)c2cc(NS(=O)(=O)c3cccs3)ccc2O1 | inactive
CC(=O)OCC(=O)C1(OC(C)=O)C(C)CC2C3CC(F)C4=CC(=O)C=CC4(C)C3(F)C(O)CC21C (stereo unspecified) | inactive
COc1ccc(S(=O)(=O)Nc2ccc3c(c2)CC(=O)N([C@@H](C)CO)C[C@@H](C)[C@H](CN(C)S(=O)(=O)c2cccs2)O3)cc1 | inactive
Cc1ccc(S(=O)(=O)N(C)C[C@H]2Oc3ccc(NC(=O)NC(C)C)cc3C(=O)N([C@H](C)CO)C[C@@H]2C)cc1 | inactive
C[C@@H]1CCCCO[C@H](CN(C)Cc2ccc(Cl)c(Cl)c2)[C@@H](C)CN([C@H](C)CO)C(=O)c2cc(NS(=O)(=O)c3cn(C)cn3)ccc2O1 | inactive
C[C@H](CO)N1C[C@H](C)[C@H](CN(C)C(=O)CN(C)C)Oc2cc(C#C[C@@H](C)O)ccc2S1(=O)=O | inactive
O=c1[nH]c(=O)c2ccccc2o1 | inactive
O=C1C(=O)N(C[C@@H](O)COc2cccc3ccccc23)C(=O)C(=O)N1C[C@@H](O)COc1cccc2ccccc12 | inactive
O=C(N[C@H]1CC[C@H](CCNS(=O)(=O)c2ccccc2)O[C@@H]1CO)c1cnccn1 | inactive
Cn1c(=O)oc2cc(S(=O)(=O)N3CCC[C@H](C(=O)NN4CCOCC4)C3)ccc21 | inactive
